# According to the supplement of paper PMC8728848:
# The other results are listed elsewhere or left out.
# Assays:
# Experiment in all cases: glycan array binding signal (z-score within array); higher = stronger binding
# Conditions in all cases: glycan notation: IUPAC condensed, linker removed
# [1] = target: Gal(b1-4)GlcNAc(b1-3)Gal(b1-4)Glc
# Summary of the method: (§1)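 Negative Z-scores can be read as non-binding. The Z-score is calculated within each array and then averaged across arrays of one protein sequence at different concentrations or buffers and across linkers. Arrays, 3228 in all, were curated from the Consortium for Functional Glycomics database and kept only where the protein sequence was available.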
# [2] = target: Gal(b1-4)GlcNAc(b1-3)Gal(b1-4)GlcNAc
# Summary of the method: as §1
# [3] = target: Gal(b1-4)GlcNAc(b1-3)Gal(b1-4)GlcNAc(b1-2)Man(a1-3)[Gal(b1-4)GlcNAc(b1-3)Gal(b1-4)GlcNAc(b1-2)Man(a1-6)]Man(b1-4)GlcNAc(b1-4)GlcNAc
# Summary of the method: as §1
# [4] = target: Gal(b1-4)GlcNAc(b1-3)Gal(b1-4)GlcNAc(b1-2)Man(a1-3)[Gal(b1-4)GlcNAc(b1-3)Gal(b1-4)GlcNAc(b1-2)Man(a1-6)]Man(b1-4)GlcNAc(b1-4)[Fuc(a1-6)]GlcNAc
# Summary of the method: as §1
# [5] = target: Gal(b1-4)GlcNAc(b1-3)Gal(b1-4)GlcNAc(b1-2)[Gal(b1-4)GlcNAc(b1-3)Gal(b1-4)GlcNAc(b1-6)]Man(a1-6)[Gal(b1-4)GlcNAc(b1-3)Gal(b1-4)GlcNAc(b1-2)Man(a1-3)]Man(b1-4)GlcNAc(b1-4)GlcNAc
# Summary of the method: as §1
# [6] = target: Gal(b1-4)GlcNAc(b1-3)Gal(b1-4)GlcNAc(b1-2)[Gal(b1-4)GlcNAc(b1-3)Gal(b1-4)GlcNAc(b1-6)]Man(a1-6)[Gal(b1-4)GlcNAc(b1-3)Gal(b1-4)GlcNAc(b1-2)Man(a1-3)]Man(b1-4)GlcNAc(b1-4)[Fuc(a1-6)]GlcNAc
# Summary of the method: as §1
# [7] = target: Gal(b1-4)GlcNAc(b1-3)Gal(b1-4)GlcNAc(b1-3)Gal(b1-4)GlcNAc
# Summary of the method: as §1
# [8] = target: Gal(b1-4)GlcNAc(b1-3)Gal(b1-4)GlcNAc(b1-3)Gal(b1-4)GlcNAc(b1-2)Man(a1-3)[Gal(b1-4)GlcNAc(b1-3)Gal(b1-4)GlcNAc(b1-3)Gal(b1-4)GlcNAc(b1-2)Man(a1-6)]Man(b1-4)GlcNAc(b1-4)GlcNAc
# Summary of the method: as §1
# [9] = target: Gal(b1-4)GlcNAc(b1-3)Gal(b1-4)GlcNAc(b1-3)Gal(b1-4)GlcNAc(b1-2)Man(a1-3)[Gal(b1-4)GlcNAc(b1-3)Gal(b1-4)GlcNAc(b1-3)Gal(b1-4)GlcNAc(b1-2)Man(a1-6)]Man(b1-4)GlcNAc(b1-4)[Fuc(a1-6)]GlcNAc
# Summary of the method: as §1
# [10] = target: Gal(b1-4)GlcNAc(b1-3)Gal(b1-4)GlcNAc(b1-3)Gal(b1-4)GlcNAc(b1-2)[Gal(b1-4)GlcNAc(b1-3)Gal(b1-4)GlcNAc(b1-3)Gal(b1-4)GlcNAc(b1-6)]Man(a1-6)[Gal(b1-4)GlcNAc(b1-3)Gal(b1-4)GlcNAc(b1-3)Gal(b1-4)GlcNAc(b1-2)Man(a1-3)]Man(b1-4)GlcNAc(b1-4)[Fuc(a1-6)]GlcNAc
# Summary of the method: as §1
# [11] = target: Gal(b1-4)GlcNAc(b1-3)Gal(b1-4)GlcNAc(b1-3)Gal(b1-4)GlcNAc(b1-3)Gal(b1-4)GlcNAc(b1-2)Man(a1-3)[Gal(b1-4)GlcNAc(b1-3)Gal(b1-4)GlcNAc(b1-3)Gal(b1-4)GlcNAc(b1-3)Gal(b1-4)GlcNAc(b1-2)Man(a1-6)]Man(b1-4)GlcNAc(b1-4)GlcNAc
# Summary of the method: as §1
# [12] = target: Gal(b1-4)GlcNAc(b1-3)Gal(b1-4)GlcNAc(b1-3)Gal(b1-4)GlcNAc(b1-3)Gal(b1-4)GlcNAc(b1-2)Man(a1-3)[Gal(b1-4)GlcNAc(b1-3)Gal(b1-4)GlcNAc(b1-3)Gal(b1-4)GlcNAc(b1-3)Gal(b1-4)GlcNAc(b1-2)Man(a1-6)]Man(b1-4)GlcNAc(b1-4)[Fuc(a1-6)]GlcNAc
# Summary of the method: as §1
# [13] = target: Gal(b1-4)GlcNAc(b1-3)Gal(b1-4)GlcNAc(b1-3)Gal(b1-4)GlcNAc(b1-3)Gal(b1-4)GlcNAc(b1-2)[Gal(b1-4)GlcNAc(b1-3)Gal(b1-4)GlcNAc(b1-3)Gal(b1-4)GlcNAc(b1-3)Gal(b1-4)GlcNAc(b1-6)]Man(a1-6)[Gal(b1-4)GlcNAc(b1-3)Gal(b1-4)GlcNAc(b1-3)Gal(b1-4)GlcNAc(b1-3)Gal(b1-4)GlcNAc(b1-2)Man(a1-3)]Man(b1-4)GlcNAc(b1-4)[Fuc(a1-6)]GlcNAc
# Summary of the method: as §1
# [14] = target: Gal(b1-4)GlcNAc(b1-3)Gal(b1-4)GlcNAc(b1-3)Gal(b1-4)GlcNAc(b1-3)Gal(b1-4)GlcNAc(b1-3)Gal(b1-4)GlcNAc(b1-2)Man(a1-3)[Gal(b1-4)GlcNAc(b1-3)Gal(b1-4)GlcNAc(b1-3)Gal(b1-4)GlcNAc(b1-3)Gal(b1-4)GlcNAc(b1-3)Gal(b1-4)GlcNAc(b1-2)Man(a1-6)]Man(b1-4)GlcNAc(b1-4)GlcNAc
# Summary of the method: as §1
# [15] = target: Gal(b1-4)GlcNAc(b1-3)Gal(b1-4)GlcNAc(b1-3)Gal(b1-4)GlcNAc(b1-3)Gal(b1-4)GlcNAc(b1-3)Gal(b1-4)GlcNAc(b1-2)Man(a1-3)[Gal(b1-4)GlcNAc(b1-3)Gal(b1-4)GlcNAc(b1-3)Gal(b1-4)GlcNAc(b1-3)Gal(b1-4)GlcNAc(b1-3)Gal(b1-4)GlcNAc(b1-2)Man(a1-6)]Man(b1-4)GlcNAc(b1-4)[Fuc(a1-6)]GlcNAc
# Summary of the method: as §1
# [16] = target: Gal(b1-4)GlcNAc(b1-3)Gal(b1-4)GlcNAc(b1-3)Gal(b1-4)GlcNAc(b1-3)Gal(b1-4)GlcNAc(b1-3)Gal(b1-4)GlcNAc(b1-2)[Gal(b1-4)GlcNAc(b1-3)Gal(b1-4)GlcNAc(b1-3)Gal(b1-4)GlcNAc(b1-3)Gal(b1-4)GlcNAc(b1-3)Gal(b1-4)GlcNAc(b1-6)]Man(a1-6)[Gal(b1-4)GlcNAc(b1-3)Gal(b1-4)GlcNAc(b1-3)Gal(b1-4)GlcNAc(b1-3)Gal(b1-4)GlcNAc(b1-3)Gal(b1-4)GlcNAc(b1-2)Man(a1-3)]Man(b1-4)GlcNAc(b1-4)[Fuc(a1-6)]GlcNAc
# Summary of the method: as §1
# [17] = target: Gal(b1-4)GlcNAc(b1-3)Gal(b1-4)GlcNAc(b1-3)Gal(b1-4)GlcNAc(b1-3)Gal(b1-4)GlcNAc(b1-3)Gal(b1-4)GlcNAc(b1-3)Gal(b1-4)GlcNAc(b1-2)Man(a1-3)[Gal(b1-4)GlcNAc(b1-3)Gal(b1-4)GlcNAc(b1-3)Gal(b1-4)GlcNAc(b1-3)Gal(b1-4)GlcNAc(b1-3)Gal(b1-4)GlcNAc(b1-3)Gal(b1-4)GlcNAc(b1-2)Man(a1-6)]Man(b1-4)GlcNAc(b1-4)GlcNAc
# Summary of the method: as §1
# [18] = target: Gal(b1-4)GlcNAc(b1-3)Gal(b1-4)GlcNAc(b1-3)GalNAc
# Summary of the method: as §1
# [19] = target: Gal(b1-4)GlcNAc(b1-3)Gal(b1-4)GlcNAc(b1-3)[Gal(b1-4)GlcNAc(b1-3)Gal(b1-4)GlcNAc(b1-6)]GalNAc
# Summary of the method: as §1
binder,measurement,setting,value
Cohesin-marm-DC-ASGPR-CRD (protein) LDITSHHHHHHDDLDAVRIKVDTVNAKPGDTVRIPVRFSGIPSKGIANCDFVYSYDPNVLEIIEIEPGDIIVDPNPDKSFDTAVYPDRKIIVFLFAEDSGTGAYAITKDGVFATIVAKVKEGAPNGLSVIKFVEVGGFANNDLVEQKTQFFDGGVNVGDTTEPATPTTPVTTPTTTDDLDAASCPINWVEHQGSCYWFSRSGKTWPEAERYCQLENTHLVVINSREEQNFVQAHLGSAYTWMGLSDPEGVWKWVDGTDYSSGFQNWKPGQPDDWQGHGLGGGEDCAHFHPDGRWNDDVCQRSYHWVCEAGLTQASQDSH,glycan array binding signal (z-score),[1],-0.421
same,glycan array binding signal (z-score),[2],-0.387
same,glycan array binding signal (z-score),[3],-0.294
same,glycan array binding signal (z-score),[4],-0.332
same,glycan array binding signal (z-score),[5],0.567
same,glycan array binding signal (z-score),[6],-0.005
same,glycan array binding signal (z-score),[7],-0.431
same,glycan array binding signal (z-score),[8],-0.307
same,glycan array binding signal (z-score),[9],-0.304
same,glycan array binding signal (z-score),[10],-0.244
same,glycan array binding signal (z-score),[11],-0.188
same,glycan array binding signal (z-score),[12],-0.327
same,glycan array binding signal (z-score),[13],-0.321
same,glycan array binding signal (z-score),[14],-0.338
same,glycan array binding signal (z-score),[15],-0.081
same,glycan array binding signal (z-score),[16],-0.14
same,glycan array binding signal (z-score),[17],-0.278
same,glycan array binding signal (z-score),[18],-0.43
same,glycan array binding signal (z-score),[19],-0.367
